The whole screen tested about 310,000 compounds, of which about 14,000 (4.5%) showed an effect of 50% or more. Effects have a minus sign here. The list shows a part of the results.
target: human ether-à-go-go-related gene (hERG) potassium channel (human, UniProt Q12809); assay: primary screen, population patch clamp on CHO cells stably expressing hERG
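Further: peak tail current of the secondary pulse compared with the same well before compound.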

Sequence of human ether-à-go-go-related gene (hERG) potassium channel (Q12809 whole entry, looked up): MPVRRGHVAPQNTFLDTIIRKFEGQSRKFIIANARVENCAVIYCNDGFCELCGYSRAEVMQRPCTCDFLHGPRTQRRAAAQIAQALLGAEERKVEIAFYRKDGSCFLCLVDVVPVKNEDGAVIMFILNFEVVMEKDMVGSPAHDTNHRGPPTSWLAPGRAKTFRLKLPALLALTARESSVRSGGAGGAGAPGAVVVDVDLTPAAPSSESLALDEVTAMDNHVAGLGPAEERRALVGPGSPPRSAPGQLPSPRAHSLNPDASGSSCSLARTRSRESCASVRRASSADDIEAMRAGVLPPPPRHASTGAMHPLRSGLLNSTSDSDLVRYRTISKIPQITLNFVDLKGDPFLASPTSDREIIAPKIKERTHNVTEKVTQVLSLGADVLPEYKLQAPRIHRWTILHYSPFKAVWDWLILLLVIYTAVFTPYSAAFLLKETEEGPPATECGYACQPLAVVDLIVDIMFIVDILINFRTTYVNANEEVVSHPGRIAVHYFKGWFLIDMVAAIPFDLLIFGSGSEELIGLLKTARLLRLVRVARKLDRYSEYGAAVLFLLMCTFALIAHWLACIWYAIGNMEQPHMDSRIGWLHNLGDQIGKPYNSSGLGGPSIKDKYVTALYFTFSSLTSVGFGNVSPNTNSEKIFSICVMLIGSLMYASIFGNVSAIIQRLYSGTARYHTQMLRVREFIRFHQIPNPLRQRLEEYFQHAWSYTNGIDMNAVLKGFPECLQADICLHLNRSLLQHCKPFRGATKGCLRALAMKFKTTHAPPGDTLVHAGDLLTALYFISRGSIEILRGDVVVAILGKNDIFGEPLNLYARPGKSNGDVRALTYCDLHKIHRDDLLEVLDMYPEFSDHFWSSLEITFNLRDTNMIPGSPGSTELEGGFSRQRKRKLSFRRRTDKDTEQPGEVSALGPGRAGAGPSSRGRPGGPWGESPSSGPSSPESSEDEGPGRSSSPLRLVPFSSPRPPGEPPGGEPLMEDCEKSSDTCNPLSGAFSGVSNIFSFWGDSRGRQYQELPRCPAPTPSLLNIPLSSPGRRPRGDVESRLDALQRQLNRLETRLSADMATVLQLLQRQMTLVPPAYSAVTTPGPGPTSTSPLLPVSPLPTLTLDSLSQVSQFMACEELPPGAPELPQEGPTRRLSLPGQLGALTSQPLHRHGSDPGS

SMILES | hERG current change (%, negative = inhibition) at 10uM [%]
CN(C)c1ccc(/C=C/C(=O)c2cccnc2)cc1 | -3.92
Cc1ccc2nc(-c3ccc(NC(=O)COC(=O)c4ccco4)cc3)sc2c1 | 7.44
Cc1cnc(C(=O)OC(C)C(=O)NC2CCCc3ccccc32)cn1 (stereo not shown) | -3.62
COc1ccc(-c2csc(NC(=O)c3ccc(OCC(=O)N4CCOCC4)c(OC)c3)n2)cc1 | -48
CCC(C)(C)NC(=O)C(c1sccc1C)N(Cc1ccco1)C(=O)c1csnn1 (stereo not shown) | 3.82
CCOc1ccc(NC(=S)NS(=O)(=O)c2cc(Br)ccc2OCC)cc1 | 16.7
COC(=O)C[C@H]1c2cc(F)ccc2S(=O)(=O)N1C(C)C | 9.21
Cc1nn(C(C)C)c(C)c1[C@@H]1C[C@H]2CN(Cc3cccc(Cl)c3)C(=O)[C@]23CCCN13 | -29.2
COCCNc1nc(N)c([N+](=O)[O-])c(Nc2ccc(F)cc2)n1 | 19.6
FC(F)(F)COc1ccc(-n2ccnc2)nn1 | 5.77
Cc1sc2ncnc(N)c2c1C | 4.12
COc1cccc(CN(CC(=O)NC2CCCC2)C(=O)c2csnn2)c1 | 20
CC(=O)N/C(=C\c1ccccc1)C(=O)OCC(=O)NC1CCS(=O)(=O)C1 (stereo not shown) | 0.657
Cc1cc(SCC(=O)c2ccccc2)nc(SCC(=O)c2ccccc2)n1 | 9.35
CN1CCC2(CC1)NC(=O)C1=C(CN(C)CC1)N2 | 17.7
CCOC(=O)N1CCN(CC(O)COc2ccc(CC)cc2)CC1.Cl (stereo not shown) | -31.2
Cc1cccc(-c2nnc(SCC(=O)Nc3nc4c(s3)CCCC4)n2C)c1 | -37.3
Cc1ccc2c(n1)sc1c(N)ncnc12 | 21.2
Cc1ccc(S(=O)(=O)N2CCC(=O)N(C(COCc3ccc(Cl)cc3)C(C)C)CC2)cc1 (stereo not shown) | -51.7
COCCN1CCN(Cc2nc(Cc3ccc(OC)c(OC)c3)no2)CC1 | 3.84
Cc1ccc(/C(N)=N/OC(=O)N2c3ccccc3Sc3ccccc32)cc1 | 4.81
COC(=O)C1=C(c2ccc3ccccc3c2)C[C@@H]2CC[C@H]1N2C(=O)NCCNC(C)=O | 12.5

SMILES | hERG current change (%, negative = inhibition) at 10uM [%]
C=CCNC(=O)CCCc1ccccc1 | 7.65
O=C(CS(=O)(=O)c1ccc(F)cc1)NCCS(=O)(=O)c1ccccc1 | 17.6
O=S(=O)(Nc1ccn(-c2ccccc2)n1)c1ccc(Br)cc1 | 12.4
COC(=O)c1ccc(N2CCN(C)CC2)c(NC(=O)c2sc3ccccc3c2Cl)c1 | 13.1
COc1ccc(CCNC(=O)COC(=O)c2ccccc2NCCO)cc1OC | 12.5
COc1cccc(NC(=S)N2CCn3c(nc4ccccc43)C2)c1 | -15.4
C=CCN1C(=O)/C(=C2/Sc3ccccc3N2CCCS(=O)(=O)O)SC1=S.c1ccncc1 | -1.91
C=C(C)CSc1cc(C)nc2c(-c3ccccc3)c(C)nn12 | -5.72
Cc1cnc(C(=O)Nc2nnc(SCc3c(Cl)cccc3Cl)s2)cn1 | -1.75
Cc1ccc(N(C(=O)CS(=O)CC(=O)Nc2ccc(F)cc2)C(C)C(=O)NC(C)(C)C)cc1 (stereo not shown) | 13.4
Cc1ccc(-n2nnnc2SCC(=O)N2CCc3ccccc3C2)c(C)c1 | -16.9
Cc1c(/C=N/NC(=O)C2(O)c3ccccc3-c3ccccc32)cnn1C | 9.98
COc1ccc(CC2(CO)CCN(S(=O)(=O)c3c(C)nn(C)c3Cl)CC2)cc1 | 14.7
CCS(=O)(=O)N1CCN=C1SCc1ccc(F)cc1 | -1.6
COc1ccccc1C(=O)O/N=C(\N)c1ccccn1 | 16.1
COc1ccc(F)cc1S(=O)(=O)NCC(c1ccc2c(c1)OCO2)N1CCN(C)CC1 (stereo not shown) | -45.6
CN1C(=O)C(O)(CC(=O)c2cccs2)c2ccccc21 (stereo not shown) | 19.7
CCOC(=O)c1cc(C(=O)c2cc(Cl)ccc2O)coc1=N | -4.18
O=C(NCc1ccccc1Cl)C1CCN(S(=O)(=O)c2ccc(-n3cnnn3)cc2)CC1 | -27.3
Cc1cc(N2CCOCC2)ccc1/C=C1/SC(=O)NC1=O | 1.61
CS(=O)(=O)c1ccc2nc(NC(=O)c3cc(-c4ccccc4)nn3-c3ccccc3)sc2c1 | 8.38
O=C(O)CCC(=O)N1CCN(c2ccccn2)CC1 | 9.16

SMILES | hERG current change (%, negative = inhibition) at 10uM [%]
Cc1ccccc1-n1c(=O)cc(N2CCCCCC2)[nH]c1=O | 1.47
Cc1cc2occ(CC(=O)Nc3nccs3)c2cc1C(C)C | -0.722
Cc1cc(C)c2nc(N3CCCC3)c(C#N)cc2c1 | 3.03
Cc1cccc(NC(=O)CS(=O)(=O)c2cn(C)c3ccccc23)c1 | -5.95
COc1cccc(-c2nc(NCCN3CCOCC3)c3ccccc3n2)c1O | -40.6
O=C(C1CCN(S(=O)(=O)c2ccc(-n3cnnn3)cc2)CC1)N1CCCCC1 | -30.1
Cc1oc(-c2cccs2)nc1CSCC(=O)N1CCC2(CC1)OCCO2 | -8.76
COc1ccc2[nH]c3c(c2c1)CN(C)CC3.Cl | 8.31
Cc1ccc(S(=O)(=O)Nc2cccc(C(=O)NC3CCN(Cc4ccccc4)CC3)c2)cc1F | -80.6
COc1cc(OC)c(N(C)C(=O)c2cc3c(s2)-c2ccccc2S(=O)(=O)C3)cc1Cl | -13.2
COc1ccc(NC(=O)CN2CCc3ccccc3C2)cc1OC | 1.05
Cc1ccc(Cc2c(C)nc3nc(SCC(=O)NCCCN4CCOCC4)nn3c2C)cc1 | -9.58
COC(=O)NNC(=O)COc1cc(C)c(Br)cc1C(C)C | 1.29
Cc1onc(-c2ccccc2Cl)c1C(=O)NC(=S)NCC(=O)c1ccccc1 | -16.9
CCC(C)NS(=O)(=O)c1ccc(OCC(=O)NCc2cccnc2)cc1 (stereo not shown) | 11.4
CCCn1c(NCc2ccco2)nc2c1c(=O)n(C)c(=O)n2C | -14.5
Cc1cc(N2CCCCC2)ccc1C=C1C(=O)N(C)C(=S)N(C)C1=O | 10.7
COc1ccccc1C(=O)Nc1ccccc1N1CCOCC1 | -6.98
CCNc1nc(Cl)nc(NCc2ccccc2)n1 | 6.89
c1ccc(OCc2nnc3n2CCCCC3)cc1 | 16.9
N#CC1=C(N)OC2=C(C(=O)CCC2)C12CCN(C(=O)OCc1ccccc1)CC2 | -55.9
CC(C)c1ccc2c(c1)[C@H]1OCC[C@H]1[C@@H](c1cccs1)N2 | 9.24

SMILES | hERG current change (%, negative = inhibition) at 10uM [%]
CCOC(=O)C1CCN(c2nc(-c3ccc(C)cc3)nc3ccccc23)CC1 | 15.4
O=C(COC(=O)c1cc[n+]([O-])cc1)Nc1ccc(F)c([N+](=O)[O-])c1 | 4.04
Cc1[nH]n(-c2ccccc2)c(=O)c1N=Nc1ccc2c(c1)OCO2 | 11.7
CCOc1ccnc(OCC)c1Br | 28.3
CC(=O)N1CCn2c3c(c4cc(C)ccc42)CCCC31 (stereo not shown) | -9.77
CCN(CC)c1ccc2cc(C(=O)NNC(=O)c3ccc(S(=O)(=O)N4CCCCC4)cc3)c(=O)oc2c1 | 27.8
COC(=O)c1ccc(NC(=O)CCN2CCN(c3ccccc3)CC2)cc1 | -28.9
CN(CC(=O)Nc1ccccc1Cl)C(=O)c1ccccc1Sc1ccccc1C#N | -4.31
Cc1cc(/C=C2\C(=O)NC(=O)N(Cc3ccco3)C2=O)c(C)n1-c1ccc(O)cc1 | -2.12
Cc1cc(C(=O)NCc2csc(-c3ccccc3)n2)no1 | -10.8
O=C(CN1C(=O)S/C(=C\c2ccccc2)C1=O)Nc1cc([N+](=O)[O-])ccc1O | 6.11
CCn1c(CNC(=O)c2ccc(OC)c(OC)c2)nnc1SCC(=O)Nc1ccccc1 | -21.5
CN(CC(CC(=O)Nc1nncs1)c1ccccc1)S(=O)(=O)c1ccccc1 (stereo not shown) | -14.2
COC(=O)c1ccc(CSc2ncnc3sc(C)c(C)c23)o1 | 12.4
Cc1c(CC(=O)NCC(=O)NCC(=O)O)c(=O)oc2cc3c(cc12)CCC(C)(C)O3 | 12.5
Cl.c1cc(CNC23CC4CC(CC(C4)C2)C3)ccn1 | -20.2
COC(=O)Cc1c(C)nc2nc(-c3ccccc3)[nH]n2c1=O | 11.2
Clc1cccc(Cl)c1NC1=NCCC1 | 20.2
CCN1CCN(CC(=O)Nc2ccc(OC(F)(F)F)cc2)CC1.Cl | -69.1
COc1cc(C2c3[nH]c4ccccc4c3C[C@H]3C(=O)N(CCO)CC(=O)N23)cc(OC)c1OC (stereo partly shown) | 6.74
CC(=O)Nc1ccc(C(=O)OCC(=O)NC(=O)NC(C)(C)C)cc1 | 9.31
C=CCOc1cccc(C2C(C(=O)c3ccco3)=C(O)C(=O)N2Cc2cccnc2)c1 (stereo not shown) | 21.8

From article PMC4336329 (PLoS ONE, 2015)
